Data from ChEMBL document CHEMBL4888484, “Replenishing the malaria drug discovery pipeline: Screening and hit evaluation of the MMV Hit Generation Library 1 (HGL1) against asexual blood stage Plasmodium falciparum ,using a nano luciferase reporter read-out” (2022).
The whole screen tested about 150,000 compounds, of which about 540 (0.36%) showed an effect of 50% or more. The list shows a part of the results.

These compounds were tested on Plasmodium falciparum (assay: Primary screen in NF54 nanoGlo assay, in single point, at 2uM, 72h; a lower Z score goes with more inhibition). Conditions: timepoint 72 hour.
Assay type: functional, Erythrocyte

Q: How did the “% Inhibition” value turn out when `Cc1oc(-c2ccccc2)nc1CN[C@H]1CCOC12CCOCC2` was run?
A: -7%

Q: What about the Z score of the same compound?
A: 1.05

Q: Which results are given for `CNc1cc(C)nc(N2CCn3nc(CNC(=O)C4CCCC4)cc3C2)n1`?
A: % Inhibition: -5%; Z score: 0.65

Q: How did the “% Inhibition” value turn out when `CCOC(=O)CN(CC)C(=O)c1ccc(C#N)c(C)n1` was run?
A: -4%

Q: And the Z score?
A: 0.39

Q: What does the source list for `Cc1ncc(CNC(=O)c2cn(C)nc2-c2ccccc2Cl)s1`?
A: % Inhibition: 8%; Z score: -1.17

Q: What does the source list for `COc1cccc(CN2C[C@]34C=C[C@H](O3)C(C(=O)N(C)Cc3nccn3C)C4C2=O)c1` (stereo not given in full)?
A: % Inhibition: -7%; Z score: 1.37

Q: How did the “% Inhibition” value turn out when `COC(=O)CC1(NC(=O)Nc2nccs2)CCC1` was run?
A: 0%

Q: And the Z score?
A: 0.09

Q: For `C[C@H]1C(=O)NCCN1C(=O)CCCc1c[nH]c2ccccc12`, which “% Inhibition” value is on record?
A: -10%

Q: And the Z score?
A: 1.34

Q: What does the source list for `CC(C)(C)c1nnc(-c2cccnc2)o1`?
A: % Inhibition: 6%; Z score: -0.89

Q: How did the “% Inhibition” value turn out when `COc1cc2c(-c3ccccc3)c(C)oc2cc1CN1CCN(Cc2ccccc2)CC1` was run?
A: -7%

Q: And the Z score?
A: 1.4

Q: How did the “% Inhibition” value turn out when `Cc1n[nH]c(C)c1CC(=O)N1C[C@]2(C)C[C@H]1CC(C)(C)C2` was run?
A: -16%

Q: What about the Z score of the same compound?
A: 1.45

Q: How did the “% Inhibition” value turn out when `COc1ccc([C@@H](NC(=O)c2nn(-c3cccc(C(C)C)c3)cc2O)c2nccn2C)cc1` was run?
A: -3%

Q: What about the Z score of the same compound?
A: 0.52

Q: Which “% Inhibition” value does the source give for `Cc1cnc(CNC(=O)c2cccc3cc(C)oc23)cn1` here?
A: 10%

Q: And the Z score?
A: -1.34

Q: `C#CCCC1(CCC(=O)N2CCc3ncc(C)cc32)N=N1` was tested. Which “% Inhibition” value did it give?
A: -5%

Q: And the Z score?
A: 0.95

Q: Which results are given for `C[C@@H](CNC(=O)Cc1nn(C)c2ccccc12)c1ccc(F)cc1F`?
A: % Inhibition: -12%; Z score: 1.78

Q: `CN(Cc1cnn(C)c1)C(=O)C1=NN(c2ccccc2)[C@H](C(N)=O)C1` was tested. Which “% Inhibition” value did it give?
A: -6%

Q: And the Z score?
A: 1.07

Q: `O=C(C1CCNCC1)N1CCN(C/C=C/c2ccccc2)CC1` was tested. Which “% Inhibition” value did it give?
A: -15%

Q: And the Z score?
A: 1.99

Q: What does the source list for `COC[C@H]1CCN(C(=O)c2cc3c(cc2C)OCCO3)C1`?
A: % Inhibition: -1%; Z score: 0.26

Q: What does the source list for `Cc1cccc(NC(=O)Cn2cnc3c(c(C)c(C)n3-c3ccccc3)c2=O)c1C`?
A: % Inhibition: 5%; Z score: -0.54

Q: With `COc1ncccc1NC(=O)N1CCc2c(sc(N)c2C#N)C1` as the compound, how does the “% Inhibition” value read?
A: 11%

Q: What about the Z score of the same compound?
A: -1.25

Q: For `O=C(NCCO)c1c(O)c2cccc3c2n(c1=O)CCC3`, which “% Inhibition” value is on record?
A: -8%

Q: And the Z score?
A: 0.75

Q: `O=c1ccc(S(=O)(=O)N2CCCCCC2)c[nH]1` was tested. Which “% Inhibition” value did it give?
A: -1%

Q: What about the Z score of the same compound?
A: 0.16

Q: How did the “% Inhibition” value turn out when `CCn1c(COc2ccc(F)cc2)nnc1N1CCOC(C)(C)C1` was run?
A: -8%

Q: What about the Z score of the same compound?
A: 1.07

Q: `COc1ccc(NC(=O)C2CCC2)cn1` was tested. Which “% Inhibition” value did it give?
A: 5%

Q: What about the Z score of the same compound?
A: -0.62

Q: How did the “% Inhibition” value turn out when `Cc1cc(C(=O)CN2CCS(=O)(=O)C3CCCCC32)c(C)[nH]1` (stereo not given) was run?
A: -3%

Q: What about the Z score of the same compound?
A: 0.53

Q: What does the source list for `CC[C@H](NC(=O)NCC1(OC)CCC1)c1nccs1`?
A: % Inhibition: -9%; Z score: 1.13

Q: With `Nc1ccccc1[C@H]1CC1(Cl)Cl` as the compound, how does the “% Inhibition” value read?
A: -6%

Q: And the Z score?
A: 0.8

Q: What does the source list for `Cc1csc(CNc2cccc(CNC(=O)OC(C)(C)C)c2)n1`?
A: % Inhibition: -10%; Z score: 1.49

Q: For `CC(C)c1nn(-c2ccccc2)c(N(C)C)c1CN(CC1CC1)C(=O)c1ccccc1F`, which “% Inhibition” value is on record?
A: -3%

Q: What about the Z score of the same compound?
A: 0.48

Q: How did the “% Inhibition” value turn out when `CC1CCCCC1N(C)C(=O)CS(=O)(=O)c1cccs1` (stereo not given) was run?
A: -14%

Q: And the Z score?
A: 2.55

Q: For `O=C(c1csc(=O)[nH]1)N1CCC(Cc2ccccc2)CC1`, which “% Inhibition” value is on record?
A: -3%

Q: And the Z score?
A: 0.47

Q: For `COCC1CCN(C(=O)[C@@H]2Cc3[nH]cnc3C3(CCCC3)N2)CC1`, which “% Inhibition” value is on record?
A: -7%

Q: And the Z score?
A: 1.06

Q: How did the “% Inhibition” value turn out when `Cn1c(C(=O)NC[C@@H]2CCCN3CCCC[C@H]23)cc2c(Cl)cccc21` was run?
A: -3%

Q: What about the Z score of the same compound?
A: 0.49

Q: Which “% Inhibition” value does the source give for `CN(CCC#N)Cc1noc(-c2ccoc2)n1` here?
A: -5%

Q: What about the Z score of the same compound?
A: 0.94

Q: Which results are given for `CCCO/C(=N/C(=O)c1cccc(OC)c1)NCc1ccc2c(c1)OCO2`?
A: % Inhibition: 4%; Z score: -0.59

Q: What does the source list for `Cc1cnn(C[C@H]2CCCS(=O)(=O)C2)c1`?
A: % Inhibition: -3%; Z score: 0.32

Q: For `NC(=O)c1nc(Cn2ccnc2-c2ccc(-c3ccccc3)s2)no1`, which “% Inhibition” value is on record?
A: 0%

Q: What about the Z score of the same compound?
A: 0.01

Q: Which results are given for `O=C(Nc1ccn(CCc2ccncc2)n1)c1cc2c(s1)CCC2`?
A: % Inhibition: -18%; Z score: 1.53

Q: `CN(C)C(=O)N1CCC(c2nc(-c3ncc[nH]3)no2)CC1` was tested. Which “% Inhibition” value did it give?
A: -1%

Q: And the Z score?
A: 0.09

Q: Which results are given for `CCC1=C(c2ccc(C)cc2)S(=O)(=O)N=C1N1CCC(C(=O)NCc2ccccc2OC)CC1`?
A: % Inhibition: -16%; Z score: 1.71

Q: `CCC(CO)N1CCN(C(CC)C(N)=O)CC1` (stereo not given) was tested. Which “% Inhibition” value did it give?
A: -8%

Q: What about the Z score of the same compound?
A: 1.18

Q: How did the “% Inhibition” value turn out when `CC(C)[C@H](Cn1c(=O)[nH]c2ccccc2c1=O)N1CCOCC1` was run?
A: -3%

Q: What about the Z score of the same compound?
A: 0.6

Q: For `NC(=O)CN1CCC(c2ncnn2-c2cccnc2)CC1`, which “% Inhibition” value is on record?
A: -3%

Q: What about the Z score of the same compound?
A: 0.54

Q: What does the source list for `CCN(Cc1nccn1C)C[C@H](C)c1ccccc1`?
A: % Inhibition: 0%; Z score: -0.04

Q: With `C[C@H](NC(=O)C1(C#N)CCCC1)c1cccc(-n2ccnc2)c1` as the compound, how does the “% Inhibition” value read?
A: 10%

Q: What about the Z score of the same compound?
A: -1.38

Q: How did the “% Inhibition” value turn out when `CC(=O)N1C[C@H]2CN(C(=O)Nc3cc(C)ccc3C)C[C@@]2(C(=O)N2CCCC2)C1` was run?
A: 1%

Q: And the Z score?
A: -0.15

Q: For `CCOc1cccc(C(=O)NC2(C#N)CCC3(CC2)OCCO3)c1`, which “% Inhibition” value is on record?
A: -15%

Q: What about the Z score of the same compound?
A: 1.94

Q: With `O=C(NC[C@]1(O)CCc2ccccc2C1)c1ccco1` as the compound, how does the “% Inhibition” value read?
A: -15%

Q: What about the Z score of the same compound?
A: 1.94

Q: For `Cc1nc(CN(C)C(=O)c2ccc3[nH]cnc3c2)no1`, which “% Inhibition” value is on record?
A: 3%

Q: What about the Z score of the same compound?
A: -0.46

Q: What does the source list for `O=C(Nc1nc(-c2ccccn2)cs1)C1=COCCO1`?
A: % Inhibition: -10%; Z score: 1.87

Q: `COCCCN(CC(=O)N(CCc1c[nH]c2ccccc12)Cc1ccc(Cl)cc1)Cc1ccccc1F` was tested. Which “% Inhibition” value did it give?
A: -5%

Q: And the Z score?
A: 0.96

Q: For `COc1ccc(-n2nc(C)c3c(C(=O)N[C@@H](C)Cc4cn(C)nc4C)cc(C)nc32)cc1`, which “% Inhibition” value is on record?
A: 2%

Q: And the Z score?
A: -0.27

Q: How did the “% Inhibition” value turn out when `Cc1cc(=O)n(C)cc1NC(=O)N[C@@H]1c2ccccc2CC[C@@H]1O` was run?
A: -2%

Q: And the Z score?
A: 0.35

Q: Which “% Inhibition” value does the source give for `O=C(NCC(O)COc1ccc(F)c(F)c1)C1CC=CCC1` (stereo not given) here?
A: -5%

Q: What about the Z score of the same compound?
A: 0.99

Q: How did the “% Inhibition” value turn out when `Cc1cccc(-c2nc(N3CC4(C)CC3CC(C)(C)C4)c3ccccc3n2)c1` (stereo not given) was run?
A: -12%

Q: And the Z score?
A: 1.6

Q: With `CC[C@H](O)CN1CCC(Nc2ncnc3cc(Cl)ccc23)CC1` as the compound, how does the “% Inhibition” value read?
A: 49%

Q: What about the Z score of the same compound?
A: -5.78
